# Measurements: PubChem BioAssay AID686979 (National Center for Advancing Translational Sciences (NCATS), 2013)
# The campaign covered roughly 420,000 compounds. About 50,000 (12%) were called active. Inconclusive means that the source gave no clear call. Such entries were picked first, then a sample of the others. Calls follow the shape of the dose curve; as a rule, active = well fitted inhibition curve with a large enough effect; inconclusive = small, poorly fitted or top-dose-only effect; inactive = flat fitted curve, though single readings scatter. Potencies of inconclusive entries are left out as doubtful fits.
# Experiment: qHTS for Inhibitors of human tyrosyl-DNA phosphodiesterase 1 (TDP1): qHTS in cells in presence of CPT; also: nearly all actives have a fitted effect of over 55% in size
# Details: chicken DT40 Tdp1-/-;hTDP1 cells + 20 nM CPT, ATP luminescence, 48 h; activity change, negative = growth inhibition: at 46.2 µM (top of the series) unless noted
# Method in brief: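 Cell growth measured by CellTiter-Glo luminescence after a minimum 48 h, 37 C compound exposure with 20 nM CPT in Tdp1-knockout DT40 cells stably expressing hTDP1, seeded 400/well; qHTS titration format.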
# % is scaled to controls: 0 for no effect and ±100 for the full control effect; potency is read from the fitted curve at half-maximal effect; tags tell the direction and shape of the fitted curve.
Structure (SMILES),"activity change, negative = growth inhibition",Potency
O=C(CCCn1c(=O)c2cccn2c2cccnc21)N1CCN(c2ccccc2F)CC1,inactive: -0.843%,–
COCCN(CC(=O)Nc1cccc(C)c1C)C(=O)C1CCN(S(=O)(=O)c2ccccc2)CC1,–,"inconclusive [inhibitor, single point]"
CC1CCCN(S(=O)(=O)c2cc3c4c(c2)CC(=O)N4CCC3)C1 (centres undefined),inactive: -24.1%,–
COc1cc2c(cc1OC)C(c1cccc([N+](=O)[O-])c1)N(C(=O)c1ccc(F)cc1)CC2 (centres undefined),–,active: 18.4 µM
CCOC(=O)N1CCC(NC(=O)C2CCCN(Cc3nc(-c4cccc(C)c4)oc3C)C2)CC1 (centres undefined),–,active: 5.8 µM
COc1ccc(S(=O)(=O)N2CCCCCC2)cc1C(=O)OCC(=O)NCC(C)C,inactive: -16.4%,–
COc1cc(/C=C/C(=O)OCC(=O)NCc2ccco2)cc(OC)c1OC,inactive: -0.0728%,–
O=C1Nc2ccccc2CCC1Sc1nnc(-c2ccc(Cl)cc2)s1 (centres undefined),–,"inconclusive [inhibitor, single point]"
Cc1c(C)c2ccc(OC(C)C(=O)NCCc3c[nH]c4ccccc34)cc2oc1=O (centres undefined),–,"inconclusive [inhibitor, single point]"
CCCCNC(=S)N/N=C/c1cccc(OCC)c1O,–,active: 1.16 µM
CCCN(C(=O)CSCC(=O)Nc1ccc(OC)cc1)c1c(N)n(Cc2ccccc2)c(=O)[nH]c1=O,inactive: 10.6%,–
O=C(CCc1nnc(Cc2ccc3c(c2)OCO3)o1)NCCc1ccccc1Cl,–,active: 11.6 µM
CN1CCN(c2ncc3nc(CCc4ccccc4)c(=O)n(Cc4cccs4)c3n2)CC1,–,"inconclusive [inhibitor, single point]"
CCN(CC)S(=O)(=O)c1cc(C(=O)Nc2cc(C)on2)c(Cl)cc1Cl,–,"inconclusive [inhibitor, single point]"
OC(CNCc1ccccc1F)COc1cccc2ccccc12 (centres undefined),–,"inconclusive [inhibitor, single point]"
CCc1nnc(NS(=O)(=O)c2ccc(N=Cc3c(C)[nH]n(-c4ccc(C)c(C)c4)c3=O)cc2)s1,–,active: 2.06 µM
COc1ccc(C(=O)N2CCN(c3cccc(C)c3C)CC2)cc1S(=O)(=O)NC1CC1,–,"inconclusive [inhibitor, single point]"
CCCCOc1ccc(CSCCN)cc1Cl,–,active: 18.4 µM
CCCc1nc2cc(C)c(Br)c(C)n2c1Cc1ccc(OC)cc1C,–,"inconclusive [inhibitor, single point]"
CCC(C)(C)NC(=O)CN(C(=O)CNS(=O)(=O)c1ccc(C)cc1)c1ccc2c(c1)OCCO2,inactive: -17.8%,–
Cc1ccc(S(=O)(=O)N2CCCCC2)cc1NCC(=O)Nc1ccc(Br)cc1F,–,active: 4.61 µM
O=C(COc1ccc(S(=O)(=O)N2CCOCC2)cc1Cl)NCCCn1ccnc1,inactive: 2.32%,–
CCOC(=O)CSc1cc(-c2ccccc2)nc2ncnn12,inactive: -9.43%,–
CCc1cc2c(cc3c(=O)n(CC(=O)N4CCN(c5ccccn5)CC4)nc(CC)n32)s1,–,"inconclusive [inhibitor, single point]"
COc1ccc(-c2coc(CCC(=O)N3CCN(c4cc(C)ccc4C)CC3)n2)cc1,–,"inconclusive [inhibitor, single point]"

Structure (SMILES),"activity change, negative = growth inhibition",Potency
CCN(CC)S(=O)(=O)c1ccc2c(c1)nc(SCC(=O)N1CCOCC1)n2-c1ccccc1OC,inactive: -2.25%,–
COc1ccc(C(C(=O)NC2CCCCC2)N(C(=O)c2ccco2)c2ccccc2C(C)=O)cc1OC (centres undefined),–,"inconclusive [inhibitor, single point]"
CCc1ccc(N(CC)c2ncnc3nc[nH]c23)cc1,–,"inconclusive [inhibitor, partial curve]"
CCc1ccccc1NC(=O)Cn1ccn(Cc2ccccc2)c(=O)c1=O,inactive: 1.72%,–
COc1ccc(C(N)c2csc(Nc3cc(Oc4ccccc4)ncn3)n2)cc1 (centres undefined),–,active: 23.1 µM
O=C(N/N=C\c1cccs1)c1ccccc1-n1cccc1,inactive: 3.28%,–
COc1ccc(NC(=O)CCc2nnc3n(Cc4ccc(C)cc4)c(=O)c4ccccc4n23)cc1,–,"inconclusive [inhibitor, single point]"
CCn1cc(C(=O)NCCCN2CC(C)CC(C)C2)c(=O)c2cc(S(=O)(=O)N(C)C)ccc21 (centres undefined),inactive: 17.3%,–
O=C1CC2c3ccccc3C1C1C(=O)N(Cc3ccccc3)C(=O)C21 (centres undefined),inactive: 1.09%,–
CC(=O)c1ccc(NC(=O)c2ccc3c(Cl)c4c(nc3c2)CCCC4)cc1,–,"inconclusive [inhibitor, single point]"
Cc1cccc(C(=O)N2CCc3cc(CNS(=O)(=O)c4ccc(F)c(Cl)c4)ccc32)c1,–,active: 1.64 µM
COc1cc(C2NC(=O)C(C#N)=C(Nc3cccc(C)c3)S2)ccc1O (centres undefined),–,"inconclusive [inhibitor, single point]"
CCC(=O)Nc1ccccc1C(=O)N1CCN(Cc2ccccc2)CC1,inactive: -9.21%,–
Cc1ccc(NC(=O)C(C)Sc2nnc(-c3cccnc3)n2-c2ccccc2)cc1 (centres undefined),–,"inconclusive [inhibitor, single point]"
CCS(=O)(=O)c1nc(S(=O)(=O)c2ccc(C)cc2)c(NC)s1,inactive: 1.48%,–
Cc1cc(NC(=O)COC(=O)c2n[nH]c3ccccc23)no1,inactive: -5.99%,–
Cc1cc2ncn(-c3ncnc4sc5c(c34)CCCC5)c2cc1C,–,"inconclusive [inhibitor, single point]"
CC(=O)NCCc1ccc(C(=O)COC(=O)c2cccs2)cc1,inactive: 3.11%,–
COc1ccc(-c2cn3ccc(C)cc3n2)cc1,–,"inconclusive [inhibitor, single point]"
COc1ccc(-c2cnc3c(NC(C)=O)cc(-c4ccccc4OC)cn23)cc1OC,–,active: 11.6 µM
COc1ccc(NS(=O)(=O)c2ccc3[nH]c4c(c3c2)CCCCC4)cc1,–,active: 16.4 µM
Cc1ccc(NC(=O)Nc2c(C)n(C)n(-c3ccccc3)c2=O)cc1C,–,active: 16.4 µM
CC1(C)Cc2nc3sc4c(=O)n(CC(=O)NCc5ccccc5)cnc4c3cc2CO1,–,active: 4.61 µM
CCCCNC(=O)c1oc2ccc(S(=O)(=O)N3CCCC3)cc2c1C,–,"inconclusive [inhibitor, single point]"
